Results reported in PMC12820563, “FoxP3 forms a head-to-head dimer in vivo and stabilizes its multimerization on adjacent microsatellites”.
Some of the results follow.

Target: T1, MBP-FoxP1dN (Mus musculus, UniProt P58462 326-579)
T1 sequence: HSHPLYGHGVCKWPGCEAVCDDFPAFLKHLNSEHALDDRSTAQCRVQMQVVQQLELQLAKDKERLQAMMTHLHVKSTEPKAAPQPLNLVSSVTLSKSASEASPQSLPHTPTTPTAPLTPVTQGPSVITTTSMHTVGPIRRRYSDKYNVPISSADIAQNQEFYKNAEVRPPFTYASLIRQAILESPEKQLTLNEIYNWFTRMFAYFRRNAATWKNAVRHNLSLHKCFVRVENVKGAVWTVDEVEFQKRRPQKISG
Assay: PD-seq (MBP pull-down with sequencing); 20 mM Tris-HCl pH 7.5, 100 mM NaCl, 1.5 mM MgCl2, 0.4 uM protein, 0.1 uM dsDNA library, 30 min, room temperature, amylose pull-down; high values mean tight binding
Conditions: protein: recombinant; tags: His6-MBP; chain copies: 2; dsDNA, one strand shown
Summary of the method: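 Binding is reads-per-million enrichment of pull-down over input, with replicates pooled. It comes from 30 min room-temperature incubation in Tris pH 7.5 buffer with NaCl and MgCl2 of 0.4 µM His6-MBP-tagged, N-terminally truncated mouse FoxP3 or FoxP1 fragment from E. coli with 0.1 µM Klenow-filled degenerate double-stranded DNA library, followed by amylose resin capture, three washes and Illumina sequencing of the released DNA.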

| Sequence | binding signal |
| --- | --- |
| GATGATTGTTCTCCCAGCTGATGAATTGGTAATGTCGAGTAAACAAATTTTCCTAATCTTTCTGTTCAAGCGCCATCTAC | 1.11 RPM ratio (pull-down/input) |
| GATGATTGTTCTCCCAGCTGATGAATTAGGGCAATCGAGTAAACAAATTTTCCTAATCTTTCTGTTCAAGCGCCATCTAC | 1.09 RPM ratio (pull-down/input) |
| GATGATTGTTCTCCCAGCTGATGAATTTGCCTAATCGAGTAAACAAATTTTCCTAATCTTTCTGTTCAAGCGCCATCTAC | 1.06 RPM ratio (pull-down/input) |
| GATGATTGTTCTCCCAGCTGATGAATTCATGGGCTCGAGTAAACAAATTTTCCTAATCTTTCTGTTCAAGCGCCATCTAC | 0.786 RPM ratio (pull-down/input) |
| GATGATTGTTCTCCCAGCTGATGAATTAGTGTTGTCGAGTAAACAAATTTTCCTAATCTTTCTGTTCAAGCGCCATCTAC | 2.53 RPM ratio (pull-down/input) |
| GATGATTGTTCTCCCAGCTGATGAATTACTTCGGTCGAGTAAACAAATTTTCCTAATCTTTCTGTTCAAGCGCCATCTAC | 0.92 RPM ratio (pull-down/input) |
| GATGATTGTTCTCCCAGCTGATGAATTACGGTTCTCGAGTAAACAAATTTTCCTAATCTTTCTGTTCAAGCGCCATCTAC | 0.967 RPM ratio (pull-down/input) |
| GATGATTGTTCTCCCAGCTGATGAATTCGGAGCCTCGAGTAAACAAATTTTCCTAATCTTTCTGTTCAAGCGCCATCTAC | 0.794 RPM ratio (pull-down/input) |
| GATGATTGTTCTCCCAGCTGATGAATTCGTTGTATCGAGTAAACAAATTTTCCTAATCTTTCTGTTCAAGCGCCATCTAC | 1.3 RPM ratio (pull-down/input) |
| GATGATTGTTCTCCCAGCTGATGAATTACAGTAATCGAGTAAACAAATTTTCCTAATCTTTCTGTTCAAGCGCCATCTAC | 1.62 RPM ratio (pull-down/input) |
| GATGATTGTTCTCCCAGCTGATGAATTTCGCATATCGAGTAAACAAATTTTCCTAATCTTTCTGTTCAAGCGCCATCTAC | 0.995 RPM ratio (pull-down/input) |
| GATGATTGTTCTCCCAGCTGATGAATTCGCCCATTCGAGTAAACAAATTTTCCTAATCTTTCTGTTCAAGCGCCATCTAC | 0.823 RPM ratio (pull-down/input) |
| GATGATTGTTCTCCCAGCTGATGAATTGGGGCGTTCGAGTAAACAAATTTTCCTAATCTTTCTGTTCAAGCGCCATCTAC | 0.91 RPM ratio (pull-down/input) |
| GATGATTGTTCTCCCAGCTGATGAATTCCACCTGTCGAGTAAACAAATTTTCCTAATCTTTCTGTTCAAGCGCCATCTAC | 0.729 RPM ratio (pull-down/input) |
| GATGATTGTTCTCCCAGCTGATGAATTAGCTGTTTCGAGTAAACAAATTTTCCTAATCTTTCTGTTCAAGCGCCATCTAC | 1.12 RPM ratio (pull-down/input) |
| GATGATTGTTCTCCCAGCTGATGAATTTAGAAAGTCGAGTAAACAAATTTTCCTAATCTTTCTGTTCAAGCGCCATCTAC | 1.04 RPM ratio (pull-down/input) |
| GATGATTGTTCTCCCAGCTGATGAATTGACGTCGTCGAGTAAACAAATTTTCCTAATCTTTCTGTTCAAGCGCCATCTAC | 1.06 RPM ratio (pull-down/input) |
| GATGATTGTTCTCCCAGCTGATGAATTTCGTCGATCGAGTAAACAAATTTTCCTAATCTTTCTGTTCAAGCGCCATCTAC | 0.9 RPM ratio (pull-down/input) |
| GATGATTGTTCTCCCAGCTGATGAATTAGCACGTTCGAGTAAACAAATTTTCCTAATCTTTCTGTTCAAGCGCCATCTAC | 0.933 RPM ratio (pull-down/input) |
| GATGATTGTTCTCCCAGCTGATGAATTCATCAAATCGAGTAAACAAATTTTCCTAATCTTTCTGTTCAAGCGCCATCTAC | 1.04 RPM ratio (pull-down/input) |
| GATGATTGTTCTCCCAGCTGATGAATTCTCGACTTCGAGTAAACAAATTTTCCTAATCTTTCTGTTCAAGCGCCATCTAC | 0.861 RPM ratio (pull-down/input) |

| Sequence | binding signal |
| --- | --- |
| GATGATTGTTCTCCCAGCTGATGAATTCCATTCTTCGAGTAAACAAATTTTCCTAATCTTTCTGTTCAAGCGCCATCTAC | 0.848 RPM ratio (pull-down/input) |
| GATGATTGTTCTCCCAGCTGATGAATTGTACTTCTCGAGTAAACAAATTTTCCTAATCTTTCTGTTCAAGCGCCATCTAC | 0.894 RPM ratio (pull-down/input) |
| GATGATTGTTCTCCCAGCTGATGAATTCAACGCATCGAGTAAACAAATTTTCCTAATCTTTCTGTTCAAGCGCCATCTAC | 1.16 RPM ratio (pull-down/input) |
| GATGATTGTTCTCCCAGCTGATGAATTCGAGCCCTCGAGTAAACAAATTTTCCTAATCTTTCTGTTCAAGCGCCATCTAC | 0.714 RPM ratio (pull-down/input) |
| GATGATTGTTCTCCCAGCTGATGAATTTCCGATCTCGAGTAAACAAATTTTCCTAATCTTTCTGTTCAAGCGCCATCTAC | 0.802 RPM ratio (pull-down/input) |
| GATGATTGTTCTCCCAGCTGATGAATTGTCTATCTCGAGTAAACAAATTTTCCTAATCTTTCTGTTCAAGCGCCATCTAC | 1.04 RPM ratio (pull-down/input) |
| GATGATTGTTCTCCCAGCTGATGAATTTCTCCCTTCGAGTAAACAAATTTTCCTAATCTTTCTGTTCAAGCGCCATCTAC | 0.948 RPM ratio (pull-down/input) |
| GATGATTGTTCTCCCAGCTGATGAATTGAATTGCTCGAGTAAACAAATTTTCCTAATCTTTCTGTTCAAGCGCCATCTAC | 0.902 RPM ratio (pull-down/input) |
| GATGATTGTTCTCCCAGCTGATGAATTGGTGAGTTCGAGTAAACAAATTTTCCTAATCTTTCTGTTCAAGCGCCATCTAC | 0.982 RPM ratio (pull-down/input) |
| GATGATTGTTCTCCCAGCTGATGAATTGCCGCGATCGAGTAAACAAATTTTCCTAATCTTTCTGTTCAAGCGCCATCTAC | 0.925 RPM ratio (pull-down/input) |
| GATGATTGTTCTCCCAGCTGATGAATTGTATTTTTCGAGTAAACAAATTTTCCTAATCTTTCTGTTCAAGCGCCATCTAC | 1.8 RPM ratio (pull-down/input) |
| GATGATTGTTCTCCCAGCTGATGAATTGGCGGACTCGAGTAAACAAATTTTCCTAATCTTTCTGTTCAAGCGCCATCTAC | 0.832 RPM ratio (pull-down/input) |
| GATGATTGTTCTCCCAGCTGATGAATTCCGAAGATCGAGTAAACAAATTTTCCTAATCTTTCTGTTCAAGCGCCATCTAC | 0.759 RPM ratio (pull-down/input) |
| GATGATTGTTCTCCCAGCTGATGAATTAGCTAGTTCGAGTAAACAAATTTTCCTAATCTTTCTGTTCAAGCGCCATCTAC | 0.968 RPM ratio (pull-down/input) |
| GATGATTGTTCTCCCAGCTGATGAATTAACGGTATCGAGTAAACAAATTTTCCTAATCTTTCTGTTCAAGCGCCATCTAC | 1 RPM ratio (pull-down/input) |
| GATGATTGTTCTCCCAGCTGATGAATTCGAATGGTCGAGTAAACAAATTTTCCTAATCTTTCTGTTCAAGCGCCATCTAC | 0.785 RPM ratio (pull-down/input) |
| GATGATTGTTCTCCCAGCTGATGAATTGGCGCACTCGAGTAAACAAATTTTCCTAATCTTTCTGTTCAAGCGCCATCTAC | 0.912 RPM ratio (pull-down/input) |
| GATGATTGTTCTCCCAGCTGATGAATTAGCCAGCTCGAGTAAACAAATTTTCCTAATCTTTCTGTTCAAGCGCCATCTAC | 0.673 RPM ratio (pull-down/input) |
| GATGATTGTTCTCCCAGCTGATGAATTCTAGAACTCGAGTAAACAAATTTTCCTAATCTTTCTGTTCAAGCGCCATCTAC | 0.811 RPM ratio (pull-down/input) |
| GATGATTGTTCTCCCAGCTGATGAATTAATCTACTCGAGTAAACAAATTTTCCTAATCTTTCTGTTCAAGCGCCATCTAC | 0.882 RPM ratio (pull-down/input) |
| GATGATTGTTCTCCCAGCTGATGAATTCGTTCCTTCGAGTAAACAAATTTTCCTAATCTTTCTGTTCAAGCGCCATCTAC | 0.857 RPM ratio (pull-down/input) |

| Sequence | binding signal |
| --- | --- |
| GATGATTGTTCTCCCAGCTGATGAATTTCTTAAATCGAGTAAACAAATTTTCCTAATCTTTCTGTTCAAGCGCCATCTAC | 1.06 RPM ratio (pull-down/input) |
| GATGATTGTTCTCCCAGCTGATGAATTCGAAGCGTCGAGTAAACAAATTTTCCTAATCTTTCTGTTCAAGCGCCATCTAC | 0.857 RPM ratio (pull-down/input) |
| GATGATTGTTCTCCCAGCTGATGAATTATACCGGTCGAGTAAACAAATTTTCCTAATCTTTCTGTTCAAGCGCCATCTAC | 0.929 RPM ratio (pull-down/input) |
| GATGATTGTTCTCCCAGCTGATGAATTCAGTATTTCGAGTAAACAAATTTTCCTAATCTTTCTGTTCAAGCGCCATCTAC | 0.942 RPM ratio (pull-down/input) |
| GATGATTGTTCTCCCAGCTGATGAATTGATATCCTCGAGTAAACAAATTTTCCTAATCTTTCTGTTCAAGCGCCATCTAC | 0.989 RPM ratio (pull-down/input) |
| GATGATTGTTCTCCCAGCTGATGAATTGATAGTCTCGAGTAAACAAATTTTCCTAATCTTTCTGTTCAAGCGCCATCTAC | 0.956 RPM ratio (pull-down/input) |
| GATGATTGTTCTCCCAGCTGATGAATTGCCGACATCGAGTAAACAAATTTTCCTAATCTTTCTGTTCAAGCGCCATCTAC | 1.05 RPM ratio (pull-down/input) |
| GATGATTGTTCTCCCAGCTGATGAATTGGATCACTCGAGTAAACAAATTTTCCTAATCTTTCTGTTCAAGCGCCATCTAC | 0.896 RPM ratio (pull-down/input) |
| GATGATTGTTCTCCCAGCTGATGAATTATCAAAGTCGAGTAAACAAATTTTCCTAATCTTTCTGTTCAAGCGCCATCTAC | 0.982 RPM ratio (pull-down/input) |
| GATGATTGTTCTCCCAGCTGATGAATTGTACGGTTCGAGTAAACAAATTTTCCTAATCTTTCTGTTCAAGCGCCATCTAC | 0.973 RPM ratio (pull-down/input) |
| GATGATTGTTCTCCCAGCTGATGAATTAGCTCCTTCGAGTAAACAAATTTTCCTAATCTTTCTGTTCAAGCGCCATCTAC | 0.814 RPM ratio (pull-down/input) |
| GATGATTGTTCTCCCAGCTGATGAATTCCGTATGTCGAGTAAACAAATTTTCCTAATCTTTCTGTTCAAGCGCCATCTAC | 0.847 RPM ratio (pull-down/input) |
| GATGATTGTTCTCCCAGCTGATGAATTATTTCGGTCGAGTAAACAAATTTTCCTAATCTTTCTGTTCAAGCGCCATCTAC | 1.04 RPM ratio (pull-down/input) |
| GATGATTGTTCTCCCAGCTGATGAATTCAGGAGGTCGAGTAAACAAATTTTCCTAATCTTTCTGTTCAAGCGCCATCTAC | 0.735 RPM ratio (pull-down/input) |
| GATGATTGTTCTCCCAGCTGATGAATTGTGCCCGTCGAGTAAACAAATTTTCCTAATCTTTCTGTTCAAGCGCCATCTAC | 0.933 RPM ratio (pull-down/input) |
| GATGATTGTTCTCCCAGCTGATGAATTTAGGCGTTCGAGTAAACAAATTTTCCTAATCTTTCTGTTCAAGCGCCATCTAC | 0.984 RPM ratio (pull-down/input) |
| GATGATTGTTCTCCCAGCTGATGAATTTCGGCAATCGAGTAAACAAATTTTCCTAATCTTTCTGTTCAAGCGCCATCTAC | 1.03 RPM ratio (pull-down/input) |
| GATGATTGTTCTCCCAGCTGATGAATTGTATCCTTCGAGTAAACAAATTTTCCTAATCTTTCTGTTCAAGCGCCATCTAC | 1.17 RPM ratio (pull-down/input) |
| GATGATTGTTCTCCCAGCTGATGAATTGCTCGAGTCGAGTAAACAAATTTTCCTAATCTTTCTGTTCAAGCGCCATCTAC | 0.899 RPM ratio (pull-down/input) |
| GATGATTGTTCTCCCAGCTGATGAATTCGCAATGTCGAGTAAACAAATTTTCCTAATCTTTCTGTTCAAGCGCCATCTAC | 0.975 RPM ratio (pull-down/input) |
| GATGATTGTTCTCCCAGCTGATGAATTCCGTCAATCGAGTAAACAAATTTTCCTAATCTTTCTGTTCAAGCGCCATCTAC | 0.997 RPM ratio (pull-down/input) |
